Experimental data from PubChem BioAssay AID938 (National Center for Advancing Translational Sciences (NCATS), 2007).
About 1,800 (2.5%) of roughly 73,000 compounds were called active. The inconclusive results got no clear call from the source; some entries with a clear call stand among them for comparison. Calls come from the whole dose curve; as a rule, active = well fitted activation curve with a large enough effect; inconclusive = small, poorly fitted or top-dose-only effect; inactive = no such curve, though single readings can be large or run the other way. Potencies of inconclusive entries are left out as doubtful fits.

Test: qHTS Assay for Agonists of the Thyroid Stimulating Hormone Receptor: Activators of Intracellular cAMP Concentrations in Parental HEK 293; note: nearly all actives have a fitted effect of over 55% in size; for activation: % of control where 0% means no effect
Conditions: parental HEK293 CNG cAMP sensor, membrane potential fluorescence; activation: at 57.1 µM (top of the series) unless noted
In short: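 Counterscreen for endogenous-receptor signalling: CNG-channel HEK 293 cells report cAMP rise by membrane depolarization. After 60 min dye equilibration with 100 uM RO 20-1724, compounds incubated 30 min before bottom-read fluorescence at 590 nm.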
Potency is the fitted concentration of half-maximal effect; tags give direction and shape of the fitted curve.

| SMILES | Potency | activation |
| --- | --- | --- |
| COc1c2ccoc2nc2c(OC)c(OCC(O)C(C)(C)O)ccc12 (centres undefined) | inactive |  |
| CC(C)n1c2ccccc2c2nc3ccccc3nc21 | inconclusive [activator, partial curve] |  |
| CCOC(=O)c1ccc(NC(=O)CN2CCc3ccccc3C2)cc1 | inconclusive [activator, partial curve] |  |
| COc1ccc(-c2noc(CCC(=O)Nc3cc(OC)ccc3OC)n2)cc1 |  | inactive: -11.5% [at 2.29 µM] |
| O=C(CN1C(=O)c2cccc3cccc1c23)NCc1cccnc1 | inconclusive [activator, single point] |  |
| O=c1/c(=C/c2ccccn2)sc2nc3ccccc3n12 |  | inactive: 5.45% [at 11.4 µM] |
| COc1ccc(CNc2ncncc2-c2ccc3c(c2)OCO3)c(OC)c1 | inconclusive [activator, partial curve] |  |
| COc1cccc(Cn2c(=O)c(CCc3ccccc3)nc3cnc(N4CCNCC4)nc32)c1 | inactive |  |
| O=C(Cn1cnc2c(cnn2-c2ccc(F)cc2)c1=O)OCc1ccccc1 | inconclusive [activator, partial curve] |  |
| COc1ccc(-c2cc(OC)c3c(C)oc(C)c3c(=O)c2)cc1OC | inconclusive [activator, single point] |  |
| Cc1ccccc1-n1c(SCc2ccccn2)nc2n[nH]c(C)c2c1=N | inactive |  |
| CO[C@H]1COC(=O)[C@@H](Cc2ccccc2)NC(=O)[C@@H](C)COC(=O)C/C=C\[C@@H]1C |  | inactive: 2.28% [at 11.4 µM] |
| C[C@H]1C=C2C=C[C@H](C)[C@H](CC[C@@H]3C[C@@H](O)CC(=O)O3)[C@H]2[C@@H](OC(=O)[C@@H](C)CCO)C1 | inconclusive [activator, partial curve] |  |
| CN(C)c1ccc(N=Cc2nc(-c3ccccc3)oc2O)cc1 | inactive |  |
| O=C(CSc1nc2ccccc2c(=O)n1-c1ccc(Cl)cc1)c1ccco1 | active: 25.1 µM |  |
| CC(Sc1nc(-c2ccccc2)cc(C(F)(F)F)n1)C(=O)NCCN1CCOCC1 (centres undefined) | inconclusive [activator, single point] |  |
| O=C(COC(=O)c1ccccc1S(=O)(=O)N1CCCCC1)NCC(F)(F)F | inconclusive [activator, single point] |  |
| CC1CCCCN1C(=O)CSc1nnc(-c2ccc(Cl)s2)o1 (centres undefined) | inconclusive [activator, single point] |  |
| Cc1ccc(CN(Cc2cc3cc(C)ccc3[nH]c2=O)C(=O)N2CCOCC2)cc1 | inactive |  |
| CC(=O)OC[C@@H]1O[C@H](C/C=N\O[C@@H](C)c2cn([C@H]3COC[C@H]3O)nn2)C=C[C@@H]1OC(C)=O |  | inactive: -3.78% [at 11.4 µM] |
| O=C(Nc1ccccc1)N1CC2(CCN(C(=O)c3cnccn3)CC2)C1 | inactive |  |
| COc1ccc(CN(C(=O)CN2C(=O)COc3ccccc32)C2CCCC2)c(OC)c1 | active: 20 µM |  |

| SMILES | Potency | activation |
| --- | --- | --- |
| O=C(Nc1ccc(Cl)cn1)c1cccc(F)c1 | inconclusive [activator, single point] |  |
| CN1CCc2cc3c(cc2C(=O)Cc2ccc4c(c2C1)OCO4)OCO3 | inconclusive [activator, full curve] |  |
| COc1ccc(C2(C)NC(=O)N(Cc3cc(Cl)cc4c3OCOC4)C2=O)cc1OC (centres undefined) | active: 15.8 µM |  |
| CC(C)c1ccc(S(=O)(=O)c2n[nH]n3c2nc(=O)c2ccccc23)cc1 | inconclusive [activator, partial curve] |  |
| O=C(COc1ccc2oc(-c3ccccc3)cc(=O)c2c1)NCc1ccco1 | inactive |  |
| Cn1c(=O)c2c(nc(CN3CCc4ccccc4C3)n2CCc2ccccc2)n(C)c1=O | active: 5.01 µM |  |
| Cc1ccc(-c2nnc(N(C)C(=O)c3ccncc3)s2)cn1 | inconclusive [activator, single point] |  |
| O=C(CN(Cc1ccco1)S(=O)(=O)c1cccs1)Nc1ccccc1C(F)(F)F | inconclusive [activator, single point] |  |
| CC(C)Oc1ccccc1C1CC(=O)Nc2cc3c(cc21)OCCO3 (centres undefined) | inconclusive [activator, partial curve] |  |
| CCCOC(=O)c1sc2nc3c(cc2c1N)C(=O)CCC3 | inactive |  |
| CCOc1ccc(Nc2c3c(nc4ncnn24)CC(C)CC3)cc1 (centres undefined) | inconclusive [activator, partial curve] |  |
| CN1CCN(c2ccc3nc(-c4ccc5nc(-c6ccc(O)cc6)[nH]c5c4)[nH]c3c2)CC1 |  | inactive: 5.75% [at 11.4 µM] |
| O=C(O)CCC(O)=C1S(=O)(=O)OCCOS1(=O)=O |  | inactive: -1.68% [at 11.4 µM] |
| N#Cc1ccc(NC(=O)Nc2ccc(Cl)cc2)cc1 | inconclusive [activator, partial curve] |  |
| COc1ccc(N=c2oc3cc(O)ccc3cc2C(=O)NCC2CCCO2)cc1 (centres undefined) | inconclusive [activator, full curve] |  |
| Cc1cccc(C)c1OCc1nnc(SCC(=O)Nc2nccs2)n1-c1ccccc1 | inconclusive [activator, single point] |  |
| CC1CCN(S(=O)(=O)c2ccc(Cl)cc2Br)CC1 | inconclusive [activator, single point] |  |
| COC(=O)CSc1nnc(CNc2ccc(Cl)cc2)n1Cc1ccccc1 | inconclusive [activator, partial curve, poor fit] |  |
| C=C(C)COc1ccc2c(c1)CCC1C2CC[C@]2(C)C(=O)/C(=N/O)CC12 (some centres undefined) |  | inactive: 1.87% [at 11.4 µM] |
| c1cc(-c2noc(CC3CCCCC3)n2)ccn1 | inconclusive [activator, single point] |  |
| CO[C@H]1COC(=O)CCC[C@H](C)[C@H](OC)COC(=O)C/C=C\[C@@H]1C |  | inactive: 5.07% [at 11.4 µM] |
| COc1ncc2nc(CCc3ccccc3)c(=O)n(C)c2n1 | inconclusive [activator, single point] |  |
